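Growth conditions: 96-well plates. Treatment: test compound, 48 hours, 5 concentrations. Analysis: linear interpolation between bracketing concentrations; unreached endpoints set to highest concentration. GI50 is the concentration that inhibits growth by half.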 The source made the active and inactive calls. Rule as the data show it: active = GI50 up to about 1.1 µM and inactive = higher.

In this assay the test system is NCI-H322M. The assay is described as follows: inhibition of tumour cell growth, NCI panel, 48 h.
As to `O=c1c2cc(O)c(O)cc2oc2cc(O)c(C3OC(CO)C(O)C(O)C3O)c(O)c12` (stereo not drawn), the GI50 is inactive: > 100 µM.

In the case of `Cc1cc2cc3c(O)nc(O)nc3nc2cc1C`, the GI50 is inactive: > 100 µM.

In the case of `c1ccc(CN2CCC3(CC2)SSC2(CCN(Cc4ccccc4)CC2)SS3)cc1`, the GI50 is inactive: > 100 µM.

For `CCC1(OC(=O)CN)C(=O)OCc2c1cc1n(c2=O)Cc2cc3ccccc3nc2-1` (stereo not drawn), the GI50 was active: 0.0485 µM.

For the compound `Cc1c2c(cc3c1[nH]c1ccccc13)C=NCC2`, the GI50 is inactive: 8.91 µM.

On to `O=C1CC(=O)NC(NN2C(=O)CSC2c2ccc(Cl)cc2)=N1` (stereo not drawn), for which the GI50 is inactive: > 100 µM.

In the case of `CC(=O)/C(=C/N1CCNC1=S)C(=O)Nc1ccccc1C`, the GI50 is inactive: > 100 µM.

Regarding `O=C(O)CN(CC(=O)O)C1CCCCC1N(CC(=O)O)CC(=O)NCCN=C=S` (stereo not drawn), the GI50 was inactive: > 100 µM.

Regarding `CCOC(=O)C(C(=O)OCC)C(=S)NC1OC(COC(C)=O)C(OC(C)=O)C(OC(C)=O)C1OC(C)=O` (stereo not drawn), the GI50 was inactive: > 100 µM.

With `Oc1ccc(Br)cc1/C=N/C1CCCCC1`, the GI50 is inactive: 42.5 µM.

Take `ClCCCN1CCCCC1CCl` (stereo not drawn): the GI50 is inactive: > 100 µM.

For `C1=CC=C2NCCCCCCC/N=C3/C=CC=CC=C3NCCCCCCC/N=C\2C=C1`, the GI50 was inactive: > 100 µM.

On to `CN(C)CCN(/C(=N/c1ccccc1)N1CCCC1)c1ccccc1`, for which the GI50 was inactive: > 100 µM.

`Cc1cc2[nH]c3c(C#N)c(-c4ccccc4)c(/N=N/c4cccc(C(F)(F)F)c4)c(=O)n3c2cc1C`: the GI50 was inactive: 38.4 µM.

For `NN/C(=N\S(=O)(=O)c1cccc2nsnc12)Nc1ccc(Cl)cc1`, the GI50 was inactive: > 100 µM.

Take `C/C=C(/C)C(=O)O[C@H]1[C@H]2[C@@H]([C@@H](OC(C)=O)[C@H](C)C(=O)[C@@]34C[C@@H](C)C(=O)[C@]3(/C=C(\C)[C@H]1OC(C)=O)O4)C2(C)C`: the GI50 is inactive: 5.86 µM.

In the case of `COc1ccc(N2C(=O)C3C=CC(n4[nH]c(=O)n(Cc5ccccc5)c4=O)CC3C2=O)cc1` (stereo not drawn), the GI50 was inactive: > 100 µM.

Take `Cc1ccc(C(=O)/C=C2/Nc3ccccc3NC2=O)c(C)c1`: the GI50 was inactive: 15 µM.

Regarding `Cc1ccc(S(=O)(=O)N/N=C2/C3CCC(C3)C2c2ccccc2)cc1` (stereo not drawn), the GI50 was inactive: > 100 µM.

In the case of `O=C(O)C(SC(=S)c1ccc(C(=S)SC(C(=O)O)c2ccccc2)cc1)c1ccccc1` (stereo not drawn), the GI50 is inactive: > 100 µM.

For `CN1CC=C(c2cccn2C)CC1`, the GI50 was inactive: > 100 µM.

As for `COC(=O)C(Cc1nc2ccc(Cl)cc2nc1O)C(=O)C(=O)Nc1ccccc1[N+](=O)[O-]` (stereo not drawn), the GI50 is inactive: > 100 µM.

On to `COC(=O)C(C(=O)C(=O)Nc1c(Cl)cc([N+](=O)[O-])cc1Cl)c1csc(-n2nc(C3=CCCCC3)cc2-c2ccccc2)n1` (stereo not drawn), for which the GI50 was inactive: > 100 µM.

Turning to `NC1=NS(=O)(=O)Nc2[nH]c(-c3ccccc3)nc21`, the GI50 was inactive: > 100 µM.

On to `COc1cc2cc(C(=O)N3C[C@@H](CCl)c4c3cc(N)c3ccccc43)[nH]c2c(OC)c1OC`, for which the GI50 was active: 0.0082 µM.

Regarding `C1CCCCc2nc3c(nc2CCC1)c1nc2c(nc1c1nc4c(nc31)CCCCCCCC4)CCCCCCCC2`, the GI50 is inactive: > 100 µM.

Take `COc1cc(OC)c([C@@H]2OC(=O)C3C2C(=O)O[C@H]3c2cc(OC)c(OC)cc2OC)cc1OC` (stereo partly drawn): the GI50 is inactive: > 100 µM.

As for `C[C@]12CC[C@H]3[C@@H](CC=C4C[C@@H](O)CC[C@@]43C)[C@@H]1C/C(=C\c1ccc([N+](=O)[O-])cc1)[C@@H]2O`, the GI50 was inactive: 10.6 µM.

For the compound `COc1ccc2cc(CN3CCC(C4CCN(Cc5ccc6cc(OC)ccc6c5)CC4)CC3)ccc2c1`, the GI50 was inactive: 3.11 µM.

Take `CC(Oc1ccccc1Cl)C(=O)NN1C(=O)CSC1c1ccc(Cl)cc1` (stereo not drawn): the GI50 is inactive: 19.5 µM.

For `CC1(C)OP(=O)(c2ccccc2)C=C1Br` (stereo not drawn), the GI50 was inactive: > 100 µM.

For the compound `COC(C/C(=C/CO[Si](C(C)C)(C(C)C)C(C)C)C(=O)N(C(=O)OC(C)(C)C)c1ccccc1I)OC`, the GI50 is inactive: > 100 µM.

Consider `NS(=O)(=O)c1cc2c(cc1Cl)NC(C(=O)NNC(=O)c1ccncc1)=NS2(=O)=O`, for which the GI50 was inactive: > 100 µM.

With `COc1cccc2[s+]snc12`, the GI50 is inactive: > 100 µM.

`CCOC(=O)C(=NN(C)c1ncccc1N)C(=O)OCC`: the GI50 was inactive: > 100 µM.

With `O=C(O)Cc1ccc(Oc2nc3ccccc3nc2-c2cccs2)cc1`, the GI50 was inactive: 78.9 µM.

`Clc1ccc(OCC2NC3C=CC32)cn1` (stereo not drawn): the GI50 was inactive: > 100 µM.

For the compound `COc1cc(C(=O)CBr)c(OC)cc1C`, the GI50 is inactive: > 100 µM.

As to `CCCCCCC/C=C1\CCC(CN(C)C)C1=O` (stereo not drawn), the GI50 is inactive: 18.5 µM.

With `CCOC(=O)c1ccc(NC(=O)O/N=C(/Cl)CC)cc1`, the GI50 is inactive: 16.6 µM.

As for `CC(=O)C1=C(C)NC(=C(C#N)C#N)C(C#N)=C1`, the GI50 was inactive: > 100 µM.

As to `Cc1cccc2c(N)c3cccc(C(=O)NCCN(C)C)c3nc12`, the GI50 is active: < 0.0377 µM.

For `COC(=O)/C=C\c1ccc2c(c1)CC1(C2)Cc2ccc(/C=C/C(=O)OC)cc2C1` (stereo not drawn), the GI50 was inactive: > 31.6 µM.

In the case of `CC(C)(c1ccc(OC#N)cc1)c1ccc(OC#N)cc1`, the GI50 was inactive: > 100 µM.

As to `O=C(/N=C(/Nc1ccccc1)SCS/C(=N\C(=O)c1ccco1)Nc1ccccc1)c1ccco1`, the GI50 was inactive: > 100 µM.

For the compound `CC1(C)CC(=O)c2c(nc3c4c([nH]c(-c5ccc([N+](=O)[O-])cc5)c24)CC(C)(C)C3)C1`, the GI50 is inactive: > 100 µM.

On to `O=c1oc2cc(/N=C/c3ccccc3Cl)ccc2c2ccccc12`, for which the GI50 was inactive: > 100 µM.

Take `O=Cc1c(Br)[nH]c2ccccc12`: the GI50 was inactive: > 100 µM.

As for `NNc1nnc(CCCCCCCCc2nnc(NN)n2N)n1N`, the GI50 was inactive: > 100 µM.

Take `COC1CC(CC2CCC(C)C(C(C)C(=O)O)O2)OC2(OC(C)(C3CCC(C)(C4OC(C5OC(O)(CO)C(C)CC5C)CC4C)O3)CC2C)C1C` (stereo not drawn): the GI50 was active: 0.918 µM.

On to `COc1ccccc1N1C(=O)/C(=C\c2cc(OC)c(OC)c(OC)c2)SC1c1ccccc1` (stereo not drawn), for which the GI50 was inactive: > 100 µM.

Consider `c1ccc(-c2c3c(nc4c2CC[C@H]4NC2=NCCN2)[C@@H](NC2=NCCN2)CC3)cc1`, for which the GI50 was inactive: > 100 µM.

For the compound `CC(=O)NC1CC(C(C)(C)NC(C)=O)CC=C1C` (stereo not drawn), the GI50 is inactive: > 100 µM.

`O=C1/C(=C/c2ccc(C(=O)O)cc2)CNC/C1=C\c1ccc(C(=O)O)cc1`: the GI50 was inactive: > 100 µM.

On to `COC(=O)C1=C(C)C(=O)[C@H]2C(C(=O)OC)CCCC[C@@H]12` (stereo partly drawn), for which the GI50 is inactive: > 100 µM.

In the case of `COc1cccc(/C=C2\CCCCCC2=O)c1`, the GI50 is inactive: > 100 µM.

`CN(C)CCNC(=O)c1ccc(NCCCN(C)CCCNc2ccc(C(=O)NCCN(C)C)c3nc4ccccc4c(O)c23)c2c(O)c3ccccc3nc12`: the GI50 is active: < 0.01 µM.

On to `COc1cc2cc(C(=O)N3CC(CCl)c4c3cc(N(C)C)c3ccccc43)[nH]c2c(OC)c1OC` (stereo not drawn), for which the GI50 was active: 0.0161 µM.

These data come from ChEMBL document CHEMBL1201862, “PubChem BioAssay data set” (2004).
